The supplement of paper PMC8728848
This is one part of the list.

How the values were obtained:
Assay in all cases: glycan array binding signal (z-score within array); higher = stronger binding
Conditions in all cases: glycan notation: IUPAC condensed, linker removed
[1] = molecular target: Fuc(a1-2)[GalNAc(a1-3)]Gal(b1-4)[Fuc(a1-3)]GlcNAc
How it was run: (§1)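 The binding signal is a Z-score computed within each array. Data were drawn from 3228 arrays in the Consortium for Functional Glycomics database, restricted to those with a known protein sequence. Scores were averaged over arrays of the same protein sequence at different concentrations or buffers, and over linkers, and negative values can be taken as non-binding.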

[2] = molecular target: Fuc(a1-2)[GalNAc(a1-4)]Gal(b1-4)GlcNAc
How it was run: as §1

[3] = molecular target: Fuc(a1-2)[GalNAc(b1-3)]Gal
How it was run: as §1

Fuc(a1-3)GlcNAc = molecular target: Fuc(a1-3)GlcNAc
How it was run: as §1

[4] = molecular target: Fuc(a1-3)[Gal(b1-4)]Glc6S
How it was run: as §1

[5] = molecular target: Fuc(a1-3)[Gal(b1-4)]GlcNAc
How it was run: as §1

[6] = molecular target: Fuc(a1-3)[Gal(b1-4)]GlcNAc(b1-2)Man(a1-3)[Fuc(a1-3)[Gal(b1-4)]GlcNAc(b1-2)Man(a1-6)]Man(b1-4)GlcNAc(b1-4)GlcNAc
How it was run: as §1

[7] = molecular target: Fuc(a1-3)[Gal(b1-4)]GlcNAc(b1-2)Man(a1-6)[Gal(b1-4)GlcNAc(b1-2)Man(a1-3)]Man(b1-4)GlcNAc(b1-4)GlcNAc
How it was run: as §1

[8] = molecular target: Fuc(a1-3)[Gal(b1-4)]GlcNAc(b1-3)Gal(b1-3)[Fuc(a1-4)]GlcNAc
How it was run: as §1

[9] = molecular target: Fuc(a1-3)[Gal(b1-4)]GlcNAc(b1-4)Gal(b1-4)[Fuc(a1-3)]GlcNAc
How it was run: as §1

[10] = molecular target: Fuc(a1-3)[Gal(b1-4)]GlcNAc(b1-4)Gal(b1-4)[Fuc(a1-3)]GlcNAc(b1-4)Gal(b1-4)[Fuc(a1-3)]GlcNAc
How it was run: as §1

[11] = molecular target: Fuc(a1-3)[Gal(b1-4)]GlcNAc6S
How it was run: as §1

[12] = molecular target: Fuc(a1-3)[Gal3S(b1-4)]Glc6S
How it was run: as §1

[13] = molecular target: Fuc(a1-3)[Gal3S(b1-4)]GlcNAc
How it was run: as §1

[14] = molecular target: Fuc(a1-3)[Gal3S(b1-4)]GlcNAc6S
How it was run: as §1

[15] = molecular target: Fuc(a1-3)[GalNAc(b1-4)]GlcNAc
How it was run: as §1

Fuc(a1-4)GlcNAc = molecular target: Fuc(a1-4)GlcNAc
How it was run: as §1

Fuc(b1-3)GlcNAc = molecular target: Fuc(b1-3)GlcNAc
How it was run: as §1

Gal(a1-2)Gal = molecular target: Gal(a1-2)Gal
How it was run: as §1

Gal(a1-3)Gal = molecular target: Gal(a1-3)Gal
How it was run: as §1

Gal(a1-3)Gal(b1-3)GlcNAc = molecular target: Gal(a1-3)Gal(b1-3)GlcNAc
How it was run: as §1

Gal(a1-3)Gal(b1-4)Glc = molecular target: Gal(a1-3)Gal(b1-4)Glc
How it was run: as §1

Gal(a1-3)Gal(b1-4)GlcNAc = molecular target: Gal(a1-3)Gal(b1-4)GlcNAc
How it was run: as §1

[16] = molecular target: Gal(a1-3)Gal(b1-4)[Fuc(a1-3)]GlcNAc
How it was run: as §1

Gal(a1-3)GalNAc = molecular target: Gal(a1-3)GalNAc
How it was run: as §1

[17] = molecular target: Gal(a1-3)[Gal(a1-4)]Gal(b1-4)GlcNAc
How it was run: as §1

Gal(a1-4)Gal(b1-4)Glc = molecular target: Gal(a1-4)Gal(b1-4)Glc
How it was run: as §1

Gal(a1-4)Gal(b1-4)GlcNAc = molecular target: Gal(a1-4)Gal(b1-4)GlcNAc
How it was run: as §1

Gal(a1-4)GlcNAc = molecular target: Gal(a1-4)GlcNAc
How it was run: as §1

Gal(a1-6)Glc = molecular target: Gal(a1-6)Glc
How it was run: as §1

Gal(b1-2)Gal = molecular target: Gal(b1-2)Gal
How it was run: as §1

Gal(b1-3)Gal = molecular target: Gal(b1-3)Gal
How it was run: as §1

Gal(b1-3)Gal(b1-4)GlcNAc = molecular target: Gal(b1-3)Gal(b1-4)GlcNAc
How it was run: as §1

Gal(b1-3)GalNAc = molecular target: Gal(b1-3)GalNAc
How it was run: as §1

[18] = molecular target: Gal(b1-3)GalNAc(b1-3)Gal(a1-4)Gal(b1-4)Glc
How it was run: as §1

[19] = molecular target: Gal(b1-3)GalNAc(b1-4)Gal(b1-4)Glc
How it was run: as §1

[20] = molecular target: Gal(b1-3)GalNAc(b1-4)[Neu5Ac(a2-3)]Gal(b1-4)Glc
How it was run: as §1

B1: L-Selectin (Homo sapiens), P14151 (protein)
chain: MIFPWKCQSTQRDLWNIFKLWGWTMLCCDFLAHHGTDCWTYHYSEKPMNWQRARRFCRDNYTDLVAIQNKAEIEYLEKTLPFSRSYYWIGIRKIGGIWTWVGTNKSLTEEAENWGDGEPNNKKNKEDCVEIYIKRNKDAGKWNDDACHKLKAALCYTASCQPWSCSGHGECVEIINNYTCNCDVGYYGPQCQFVIQCEPLEAPELGTMDCTHPLGNFSFSSQCAFSCSEGTNLTGIEETTCGPFGNWSSPEPTCQVIQCEPLSAPDLGIMNCSHPLASFSFTSACTFICSEGTELIGKKKTICESSGIWSNPSPICQKLDKSFSMIKEGDYNPLFIPVAVMVTAFSGLAFIIWLARRLKKGKKSKRSMNDPY
glycan array binding signal (z-score) [1]: -0.212 | glycan array binding signal (z-score) [2]: -0.09 | glycan array binding signal (z-score) [3]: 0.137 | glycan array binding signal (z-score) (Fuc(a1-3)GlcNAc): -0.223 | glycan array binding signal (z-score) [4]: 0.137 | glycan array binding signal (z-score) [5]: -0.005 | glycan array binding signal (z-score) [6]: 0.164 | glycan array binding signal (z-score) [7]: -0.284 | glycan array binding signal (z-score) [8]: -0.294 | glycan array binding signal (z-score) [9]: -0.145 | glycan array binding signal (z-score) [10]: -0.343 | glycan array binding signal (z-score) [11]: -0.109 | glycan array binding signal (z-score) [12]: 6.9 | glycan array binding signal (z-score) [13]: -0.113 | glycan array binding signal (z-score) [14]: 8.15 | glycan array binding signal (z-score) [15]: -0.255 | glycan array binding signal (z-score) (Fuc(a1-4)GlcNAc): -0.311 | glycan array binding signal (z-score) (Fuc(b1-3)GlcNAc): -0.243 | glycan array binding signal (z-score) (Gal(a1-2)Gal): -0.195 | glycan array binding signal (z-score) (Gal(a1-3)Gal): 0.225 | glycan array binding signal (z-score) (Gal(a1-3)Gal(b1-3)GlcNAc): -0.321 | glycan array binding signal (z-score) (Gal(a1-3)Gal(b1-4)Glc): -0.351 | glycan array binding signal (z-score) (Gal(a1-3)Gal(b1-4)GlcNAc): -0.365 | glycan array binding signal (z-score) [16]: -0.211 | glycan array binding signal (z-score) (Gal(a1-3)GalNAc): -0.013 | glycan array binding signal (z-score) [17]: -0.342 | glycan array binding signal (z-score) (Gal(a1-4)Gal(b1-4)Glc): -0.139 | glycan array binding signal (z-score) (Gal(a1-4)Gal(b1-4)GlcNAc): -0.141 | glycan array binding signal (z-score) (Gal(a1-4)GlcNAc): -0.267 | glycan array binding signal (z-score) (Gal(a1-6)Glc): 0.48 | glycan array binding signal (z-score) (Gal(b1-2)Gal): -0.164 | glycan array binding signal (z-score) (Gal(b1-3)Gal): -0.315 | glycan array binding signal (z-score) (Gal(b1-3)Gal(b1-4)GlcNAc): -0.402 | glycan array binding signal (z-score) (Gal(b1-3)GalNAc): -0.3 | glycan array binding signal (z-score) [18]: 0.037 | glycan array binding signal (z-score) [19]: -0.301 | glycan array binding signal (z-score) [20]: -0.192
